{"source": "paper PMC6212790", "note": "The other results are listed elsewhere or left out. At the low end of the ranking, values are background and their order means little."}
{"molecular_target": "T1, GST-Rok (full length) (UniProt O34857)", "T1 sequence": "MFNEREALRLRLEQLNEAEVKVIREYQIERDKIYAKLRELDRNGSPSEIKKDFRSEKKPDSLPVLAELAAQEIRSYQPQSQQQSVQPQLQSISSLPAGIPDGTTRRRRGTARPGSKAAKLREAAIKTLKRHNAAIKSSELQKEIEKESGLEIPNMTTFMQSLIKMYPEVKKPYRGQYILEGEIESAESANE", "assay": "protein binding microarray;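 further: rank score from −0.5 (least bound) to 0.5 (best bound)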", "settings": "Rok is a gene silencer of Bacillus subtilis; high values mean tight binding; most listed sequences are background and not binding sites; double strand, one strand shown", "units": {"binding signal": "E-score"}}
{"sequence": "ATCTGCAA", "binding signal": 0.08}
{"sequence": "GGCTGGAA", "binding signal": -0.115}
{"sequence": "ACAGCAGA", "binding signal": -0.111}
{"sequence": "TAAACGAA", "binding signal": -0.00162}
{"sequence": "GGGGTTGA", "binding signal": -0.324}
{"sequence": "AAGAGTGC", "binding signal": -0.116}
{"sequence": "AAATACTA", "binding signal": 0.454}
{"sequence": "TCACCCCA", "binding signal": -0.167}
{"sequence": "CTCGGAGA", "binding signal": -0.0958}
{"sequence": "CTCTATCA", "binding signal": -0.0321}
{"sequence": "CACGCGGC", "binding signal": -0.307}
{"sequence": "ATGGCATA", "binding signal": 0.0465}
{"sequence": "AGGTGCTA", "binding signal": -0.0307}
{"sequence": "CTCCCTGA", "binding signal": -0.357}
{"sequence": "ACTATCAC", "binding signal": 0.34}
{"sequence": "CAGTACCG", "binding signal": -0.00989}
{"sequence": "CTCCGACC", "binding signal": -0.373}
{"sequence": "TCTAATCA", "binding signal": -0.00524}
{"sequence": "GTGGCAAA", "binding signal": 0.0549}
{"sequence": "CAAAGCCG", "binding signal": -0.148}
{"sequence": "TCACCTCA", "binding signal": -0.21}
{"sequence": "AATCACAT", "binding signal": 0.174}
{"sequence": "GCCTGTGA", "binding signal": -0.0124}
{"sequence": "TCGGAGAA", "binding signal": 0.0242}
{"sequence": "AATCTTCC", "binding signal": 0.0657}
{"sequence": "AACCTTCC", "binding signal": -0.0451}
{"sequence": "CTTTCTAA", "binding signal": 0.162}
{"sequence": "CAAGCGGC", "binding signal": 0.0248}
{"sequence": "AGTGGCTA", "binding signal": -0.191}
{"sequence": "CGCCATCA", "binding signal": -0.202}
{"sequence": "GCGCACCA", "binding signal": -0.0364}
{"sequence": "ACAGTTGC", "binding signal": -0.0916}
{"sequence": "AGCTAAAG", "binding signal": -0.152}
{"sequence": "TAGCTCAA", "binding signal": 0.0254}
{"sequence": "TCGAGGCA", "binding signal": -0.0118}
{"sequence": "ACCAACAA", "binding signal": -0.105}
{"sequence": "GATACAGC", "binding signal": 0.0853}
{"sequence": "CAGAAGAC", "binding signal": -0.144}
{"sequence": "AAGGGCTC", "binding signal": -0.237}
{"sequence": "CATATGCG", "binding signal": 0.0597}
{"sequence": "CGGGGCGC", "binding signal": -0.268}
{"sequence": "AGTTTGCG", "binding signal": 0.256}
{"sequence": "CGTAGAGC", "binding signal": -0.115}
{"sequence": "AGTTCACA", "binding signal": 0.171}
{"sequence": "AACAATCC", "binding signal": 0.165}
{"sequence": "CTATGAAG", "binding signal": 0.0749}
{"sequence": "CTGACCAA", "binding signal": 0.0177}
{"sequence": "GGTACGTA", "binding signal": 0.224}
{"sequence": "CTGCGCTA", "binding signal": -0.143}
{"sequence": "GGGCTCCA", "binding signal": -0.23}
{"sequence": "CTGGTTTA", "binding signal": -0.0493}
{"sequence": "ATGTTCCA", "binding signal": 0.00947}
{"sequence": "CGTCGATA", "binding signal": 0.124}
{"sequence": "GATAGATA", "binding signal": 0.368}
{"sequence": "AAATCGGA", "binding signal": -0.0407}
{"sequence": "AAAAACGA", "binding signal": -0.00031}
{"sequence": "GAGAAATA", "binding signal": 0.305}
{"sequence": "CGCGGTGC", "binding signal": -0.315}
{"sequence": "ATATCACA", "binding signal": 0.176}
{"sequence": "ACAGGTCT", "binding signal": -0.119}
{"sequence": "AGTTTGAG", "binding signal": -0.0375}
{"sequence": "ACTCACAA", "binding signal": -0.0278}
{"sequence": "CCCATCAC", "binding signal": -0.169}
{"sequence": "AATGCTTC", "binding signal": 0.0347}
{"sequence": "CAAAAGTA", "binding signal": 0.258}
{"sequence": "CCGAGTTA", "binding signal": 0.206}
{"sequence": "GAGTTGGC", "binding signal": -0.158}
{"sequence": "ACGCTAAC", "binding signal": 0.115}
{"sequence": "AATGACCT", "binding signal": -0.129}
{"sequence": "ACGTCGAT", "binding signal": 0.142}
{"sequence": "AGTGTAGA", "binding signal": 0.138}
{"sequence": "AGGTACTC", "binding signal": -0.0642}
{"sequence": "GGTGATCA", "binding signal": -0.319}
{"sequence": "AAGGATCA", "binding signal": -0.129}
{"sequence": "CCTTCCTC", "binding signal": -0.365}
{"sequence": "CCGGCCGC", "binding signal": -0.308}
{"sequence": "ATATCAGG", "binding signal": 0.078}
{"sequence": "GACAAGGC", "binding signal": -0.155}
{"sequence": "GCGTATCA", "binding signal": 0.0845}
{"sequence": "GCGCATCC", "binding signal": -0.273}
{"sequence": "GAATTGGA", "binding signal": 0.104}
{"sequence": "AAGTTTCC", "binding signal": -0.0805}
{"sequence": "ATCCCTCG", "binding signal": -0.216}
{"sequence": "CATTAGCG", "binding signal": 0.118}
{"sequence": "AAAATTAC", "binding signal": 0.248}
{"sequence": "CACCTAGC", "binding signal": -0.131}
{"sequence": "AAAGGGAG", "binding signal": -0.363}
{"sequence": "CCATTTCC", "binding signal": -0.131}
{"sequence": "CGACGTTA", "binding signal": 0.102}
{"sequence": "ATTAATTA", "binding signal": 0.279}
{"sequence": "GTCGGGCA", "binding signal": -0.219}
{"sequence": "CATGCTGG", "binding signal": -0.145}
{"sequence": "AAATGGCG", "binding signal": -0.0887}
{"sequence": "GGCACACC", "binding signal": -0.279}
{"sequence": "ACCCGTTC", "binding signal": -0.078}
{"sequence": "CAGGAGCA", "binding signal": -0.255}
{"sequence": "CGTTGCAA", "binding signal": 0.134}
{"sequence": "CTCGTTTA", "binding signal": 0.0412}
{"sequence": "ATATATCA", "binding signal": 0.398}
{"sequence": "ACACGTGT", "binding signal": 0.102}
{"sequence": "GGCCAGAC", "binding signal": -0.3}
{"sequence": "ATATCATA", "binding signal": 0.247}
{"sequence": "ACGCGGGC", "binding signal": -0.128}
{"sequence": "AACCCCAT", "binding signal": -0.3}
{"sequence": "CGTGGTAA", "binding signal": -0.0887}
{"sequence": "AGCCTTAC", "binding signal": -0.0245}
{"sequence": "GCTTGTTA", "binding signal": -0.00887}
{"sequence": "ACTTCTAT", "binding signal": 0.274}
{"sequence": "GAGCTCTA", "binding signal": -0.0356}
{"sequence": "CAATAGAA", "binding signal": 0.231}
{"sequence": "AGCGGGGC", "binding signal": -0.344}
{"sequence": "GATCAAAA", "binding signal": 0.077}
{"sequence": "AACAAGAC", "binding signal": -0.0903}
{"sequence": "AGTAGCAG", "binding signal": 0.0322}
{"sequence": "CTCATACC", "binding signal": 0.132}
{"sequence": "CACGCCCA", "binding signal": -0.24}
{"sequence": "AAAATCTC", "binding signal": 0.141}
{"sequence": "CGATGATC", "binding signal": -0.0545}
{"sequence": "CCATTCTC", "binding signal": -0.103}
{"sequence": "GCTGGTCA", "binding signal": -0.343}
{"sequence": "GCTTCGAC", "binding signal": -0.0139}
{"sequence": "CTCGAAGA", "binding signal": -0.0166}
{"sequence": "CCCTCAAA", "binding signal": -0.31}
{"sequence": "ACGCTCAT", "binding signal": -0.273}
{"sequence": "CGCCCCAG", "binding signal": -0.363}
{"sequence": "ACGCCCCG", "binding signal": -0.396}
{"sequence": "CCTGTACC", "binding signal": 0.0338}
{"sequence": "CTGCCTTA", "binding signal": -0.0496}
{"sequence": "CCGAGGTC", "binding signal": -0.243}
{"sequence": "GCCATCCA", "binding signal": -0.168}
{"sequence": "CCCGCACA", "binding signal": -0.286}
{"sequence": "GATCGAAA", "binding signal": -0.0281}
{"sequence": "CTCTCCAA", "binding signal": -0.126}
{"sequence": "AGTATCGC", "binding signal": 0.0166}
{"sequence": "AACATGAC", "binding signal": 0.206}
{"sequence": "AACCGCGA", "binding signal": -0.0117}
{"sequence": "AGCTCCTG", "binding signal": -0.261}
{"sequence": "AATGAGTC", "binding signal": -0.114}
{"sequence": "AAGCAAGA", "binding signal": -0.0912}
{"sequence": "ATGAACGC", "binding signal": -0.108}
{"sequence": "ACACGGAG", "binding signal": -0.123}
{"sequence": "GTGCGGCA", "binding signal": -0.271}
{"sequence": "CACAGATG", "binding signal": -0.0303}
{"sequence": "CATTCGTA", "binding signal": 0.0195}
{"sequence": "GGGGACGA", "binding signal": -0.214}
{"sequence": "ATTCTTAC", "binding signal": 0.159}
{"sequence": "CTTACGAA", "binding signal": 0.0513}
{"sequence": "AATAATCA", "binding signal": 0.187}
{"sequence": "TCTCACCA", "binding signal": -0.0107}
{"sequence": "CCAGGGGA", "binding signal": -0.274}
{"sequence": "ATATCAAA", "binding signal": 0.195}
{"sequence": "CGCAACCC", "binding signal": -0.133}
{"sequence": "GGTAGGAC", "binding signal": 0.0568}
{"sequence": "TAGCAAAA", "binding signal": 0.163}
{"sequence": "AACAGTTG", "binding signal": 0.0822}
{"sequence": "AAACTCCA", "binding signal": -0.0432}
{"sequence": "ATGTCAGA", "binding signal": -0.087}
{"sequence": "ACAAAACA", "binding signal": 0.116}
{"sequence": "GAACAGAC", "binding signal": 0.0035}
{"sequence": "AACGTCGG", "binding signal": -0.223}
{"sequence": "CGACCGCG", "binding signal": -0.0803}
{"sequence": "CAACTGGA", "binding signal": -0.143}
{"sequence": "GCGAGCGA", "binding signal": -0.149}
{"sequence": "TCGTAAGA", "binding signal": 0.0433}
{"sequence": "ATAAGCAG", "binding signal": 0.145}
{"sequence": "CAAGACCG", "binding signal": -0.311}
{"sequence": "AACTGAGG", "binding signal": -0.0271}
{"sequence": "CTAGTATA", "binding signal": 0.409}
{"sequence": "ATGGCCAC", "binding signal": -0.249}
{"sequence": "TTAGGAAA", "binding signal": -0.0886}
{"sequence": "AATGTCAG", "binding signal": -0.155}
{"sequence": "AGAGATTC", "binding signal": -0.104}
